# Some of the results follow.
# B1: GS13686A-pdi-553-26-553 (Parabacteroides distasonis) (protein)
# chain: NENPDKPTDDVNYNMNEPRLASTLRGGLIIEGNVEQRLKPLQIDFYSQMTVDGGGWGTKNYIQDDEWNNLVWEEYLKQIASINIVIRSLTEKDKDAYANTIAFARIWRVYVHTLAADKFGPMPFPAYEIVEANPPYKSLKDIYDEYFRELDAAINGFNDSAQPIFSDAGIDLIYKNDVSKWKRFANSLRLRLAVRLTEVDQEKCIAEANAAISSPAGLISDKADNAYMPPKADGSWGQDYNYTMFQITWSGPICMSKSVEKLVTNIGGVAWPQGVVNQTSGVAVSSVHPEKVDPRAPKIFQPGIENGDWKGLVYGPKAEEANTGIYQSKQCAELGFIIKDGYPYKSRPYDLFLSEEVHFLKAELYARGFIAGDAKSEYEAGVRASFATWGVTSEVDDYLTSTEKNEAGTSARYDDQQGAGNTALEKIITQKYIAGIPDLAQEGWNDKRRLNLPRLDVAVYRDQAVYNNNDKDILKSANFIKRMRYPTKESLINATEYEKGKSMLGGKGDIVSTPLWWDKNSNYCTSSK
# Tests used:
# Test in all cases: glycan array binding signal (z-score within array); higher = stronger binding
# Conditions in all cases: glycan notation: IUPAC condensed, linker removed
# [1] = molecular target: Fuc(a1-2)Gal(b1-4)GlcNAc(b1-3)Gal(b1-4)GlcNAc(b1-3)Gal(b1-4)GlcNAc
# Outline: (§1)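 Columns mapping to the same glycan were averaged after glycan names were converted to IUPAC-condensed notation. The data come from 3228 arrays in the Consortium for Functional Glycomics database, limited to those with an available protein sequence. Binding is reported as a within-array Z-score averaged across arrays of one protein sequence and across linkers.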
# [2] = molecular target: Fuc(a1-2)Gal(b1-4)GlcNAc(b1-3)GalNAc
# Outline: as §1
# [3] = molecular target: Fuc(a1-2)Gal(b1-4)GlcNAc(b1-3)[Fuc(a1-2)Gal(b1-4)GlcNAc(b1-6)]GalNAc
# Outline: as §1
# [4] = molecular target: Fuc(a1-2)Gal(b1-4)GlcNAc(b1-3)[Fuc(a1-3)[Gal(b1-4)]GlcNAc(b1-6)]Gal(b1-4)Glc
# Outline: as §1
# [5] = molecular target: Fuc(a1-2)Gal(b1-4)GlcNAc(b1-6)GalNAc
# Outline: as §1
# [6] = molecular target: Fuc(a1-2)Gal(b1-4)GlcNAc6S
# Outline: as §1
# [7] = molecular target: Fuc(a1-2)Gal(b1-4)[Fuc(a1-3)]GlcNAc
# Outline: as §1
# [8] = molecular target: Fuc(a1-2)Gal(b1-4)[Fuc(a1-3)]GlcNAc(b1-2)Man(a1-3)[Fuc(a1-2)Gal(b1-4)[Fuc(a1-3)]GlcNAc(b1-2)Man(a1-6)]Man(b1-4)GlcNAc(b1-4)[Fuc(a1-6)]GlcNAc
# Outline: as §1
# [9] = molecular target: Fuc(a1-2)Gal(b1-4)[Fuc(a1-3)]GlcNAc(b1-2)[Fuc(a1-2)Gal(b1-4)[Fuc(a1-3)]GlcNAc(b1-4)]Man(a1-3)[Fuc(a1-2)Gal(b1-4)[Fuc(a1-3)]GlcNAc(b1-2)Man(a1-6)]Man(b1-4)GlcNAc(b1-4)GlcNAc
# Outline: as §1
# [10] = molecular target: Fuc(a1-2)Gal(b1-4)[Fuc(a1-3)]GlcNAc(b1-3)Gal(b1-4)[Fuc(a1-3)]GlcNAc
# Outline: as §1
# [11] = molecular target: Fuc(a1-2)Gal(b1-4)[Fuc(a1-3)]GlcNAc(b1-3)Gal(b1-4)[Fuc(a1-3)]GlcNAc(b1-3)Gal(b1-4)[Fuc(a1-3)]GlcNAc
# Outline: as §1
# [12] = molecular target: Fuc(a1-2)Gal(b1-4)[Fuc(a1-3)]GlcNAc(b1-3)GalNAc
# Outline: as §1
# [13] = molecular target: Fuc(a1-2)Gal(b1-4)[Fuc(a1-3)]GlcNAc(b1-3)[Neu5Ac(a2-6)Gal(b1-4)GlcNAc(b1-6)]Gal(b1-4)Glc
# Outline: as §1
# [14] = molecular target: Fuc(a1-2)Gal3S(b1-4)GlcNAc
# Outline: as §1
# [15] = molecular target: Fuc(a1-2)Gal6S(b1-3)GlcNAc
# Outline: as §1
# [16] = molecular target: Fuc(a1-2)Gal6S(b1-3)GlcNAc6S
# Outline: as §1
# Fuc(a1-2)Gal6S(b1-4)Glc = molecular target: Fuc(a1-2)Gal6S(b1-4)Glc
# Outline: as §1
# [17] = molecular target: Fuc(a1-2)Gal6S(b1-4)Glc6S
# Outline: as §1
# Fuc(a1-2)[Gal(a1-3)]Gal = molecular target: Fuc(a1-2)[Gal(a1-3)]Gal
# Outline: as §1
# [18] = molecular target: Fuc(a1-2)[Gal(a1-3)]Gal(b1-3)GalNAc
# Outline: as §1
# [19] = molecular target: Fuc(a1-2)[Gal(a1-3)]Gal(b1-3)GalNAc(b1-3)Gal(a1-4)Gal(b1-4)Glc
# Outline: as §1
# [20] = molecular target: Fuc(a1-2)[Gal(a1-3)]Gal(b1-3)GlcNAc
# Outline: as §1
# [21] = molecular target: Fuc(a1-2)[Gal(a1-3)]Gal(b1-3)GlcNAc(b1-2)Man(a1-3)[Fuc(a1-2)[Gal(a1-3)]Gal(b1-3)GlcNAc(b1-2)Man(a1-6)]Man(b1-4)GlcNAc(b1-4)GlcNAc
# Outline: as §1
# [22] = molecular target: Fuc(a1-2)[Gal(a1-3)]Gal(b1-3)GlcNAc(b1-2)Man(a1-3)[Fuc(a1-2)[Gal(a1-3)]Gal(b1-3)GlcNAc(b1-2)Man(a1-6)]Man(b1-4)GlcNAc(b1-4)[Fuc(a1-6)]GlcNAc
# Outline: as §1
# [23] = molecular target: Fuc(a1-2)[Gal(a1-3)]Gal(b1-3)GlcNAc(b1-3)GalNAc
# Outline: as §1
# [24] = molecular target: Fuc(a1-2)[Gal(a1-3)]Gal(b1-3)GlcNAc(b1-6)GalNAc
# Outline: as §1
# [25] = molecular target: Fuc(a1-2)[Gal(a1-3)]Gal(b1-4)Glc
# Outline: as §1
# [26] = molecular target: Fuc(a1-2)[Gal(a1-3)]Gal(b1-4)GlcNAc
# Outline: as §1
# [27] = molecular target: Fuc(a1-2)[Gal(a1-3)]Gal(b1-4)GlcNAc(b1-2)Man
# Outline: as §1
# [28] = molecular target: Fuc(a1-2)[Gal(a1-3)]Gal(b1-4)GlcNAc(b1-2)Man(a1-3)[Fuc(a1-2)[Gal(a1-3)]Gal(b1-4)GlcNAc(b1-2)Man(a1-6)]Man(b1-4)GlcNAc(b1-4)GlcNAc
# Outline: as §1
binder,measurement,setting,value
B1,glycan array binding signal (z-score),[1],-0.364
same,glycan array binding signal (z-score),[2],-0.352
same,glycan array binding signal (z-score),[3],-0.111
same,glycan array binding signal (z-score),[4],-0.09
same,glycan array binding signal (z-score),[5],-0.08
same,glycan array binding signal (z-score),[6],-0.344
same,glycan array binding signal (z-score),[7],-0.231
same,glycan array binding signal (z-score),[8],-0.058
same,glycan array binding signal (z-score),[9],0.061
same,glycan array binding signal (z-score),[10],-0.019
same,glycan array binding signal (z-score),[11],-0.045
same,glycan array binding signal (z-score),[12],0.523
same,glycan array binding signal (z-score),[13],-0.056
same,glycan array binding signal (z-score),[14],-0.31
same,glycan array binding signal (z-score),[15],-0.018
same,glycan array binding signal (z-score),[16],-0.138
same,glycan array binding signal (z-score),Fuc(a1-2)Gal6S(b1-4)Glc,-0.226
same,glycan array binding signal (z-score),[17],0.08
same,glycan array binding signal (z-score),Fuc(a1-2)[Gal(a1-3)]Gal,-0.204
same,glycan array binding signal (z-score),[18],0.325
same,glycan array binding signal (z-score),[19],-0.231
same,glycan array binding signal (z-score),[20],-0.036
same,glycan array binding signal (z-score),[21],-0.301
same,glycan array binding signal (z-score),[22],0.02
same,glycan array binding signal (z-score),[23],-0.226
same,glycan array binding signal (z-score),[24],-0.026
same,glycan array binding signal (z-score),[25],-0.096
same,glycan array binding signal (z-score),[26],-0.38
same,glycan array binding signal (z-score),[27],-0.139
same,glycan array binding signal (z-score),[28],-0.189
